Assay results published in the supplement of paper PMC10126150.
Sequences with one replicate were seen in a single cluster, so their values are uncertain.

Test system: ATP
Assay: switch fluorescence ratio, 500 uM ATP over buffer (Cy3 cluster intensity, sum of 5 cycles each) (fold (ratio)); higher = stronger signal-on switching upon ATP binding; sequences stand for … in TCGTCGGCAGCGTCAGATGTGTATAAGAGACAGTTTTTTTTTTTTTTTTTTTTTTTTT…TC
Conditions: aptamer strand: ATP DNA aptamer (quencher-CACCTGGGGGAGTATTGCGGAGGAAGG + anchor), 100 nM annealed; ATP concentration: 500 uM; one replicate
Method in brief: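 Clusters with intensities outside 100-1000 RFU were excluded. The remaining Cy3-labelled switching-strand clusters on a modified Illumina MiSeq flow-cell had been annealed to 100 nM quencher-labelled ATP aptamer and imaged in selection buffer, then after 15 min with 500 uM ATP at 22 °C, for five cycles separated by NaOH stripping and re-annealing. The fluorescence ratio, averaged per switch-domain sequence, is each cluster's summed target-cycle Cy3 intensity over its summed buffer-cycle Cy3 intensity.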
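Also: ATP exposure 15 min at 22 °C before imaging.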

Sequence	switch fluorescence ratio
TTCCTCGATA	1.02
TGCAATAAGA	1.16
TTGCCGAATC	1
GGAACTGGGA	0.994
ATGAATTTA	0.998
CGGTCAGCAT	1.18
AATTGGAT	0.977
TTATATTAAC	1.04
AAGAAAATGC	2.34
TGTTCGGCTT	1.02
AGCAGATAGT	1.09
TCTGGGAAAC	1.02
GTCTTTGGGG	0.998
TTGGAATCG	0.98
TAAGAGTCAC	1
CTGACACTGT	1.02
CCGTAAAATA	1.14
GATTACGACG	1.07
CGAGGAGATA	0.998
AGGCCTATTC	1.01
CTGTGTTCGA	0.973
GGATCAATT	1
GGTCTTCATA	0.999
GGCGCCACGT	0.991
ATTAGTTTAA	0.946
GCGCACCCCT	1.42

Sequence	switch fluorescence ratio
TATGTTTCGC	1.02
TGATAGTAAA	0.985
TCGTTCACGT	1.04
CACAGTTTAA	1.02
AGCACGGAGT	1.04
GCTCGCACTA	1.32
TCTCTCAACG	1.06
TGGCTTAAT	0.991
CGTTGTCTGG	1.01
AGAAGCCGAT	1
CGCGGGGTGG	1
ATAAACCCC	1.03
TGGCCACAAG	0.977
TGATGGGGC	1.08
TCTTAAGGC	0.926
ACGCGCTAGA	1
CCCCGAGGCG	2.39
TGACAGGTA	0.98
ACGTAACGG	1.3
TGAGCACG	1.06
GTTGGACAAA	0.985
GTTCTCGAAT	1.04
TAGTAAGTTC	0.988
CGAAGCCATG	1.35
CACGAATCTA	1.05
GAAGAATATG	0.995

Sequence	switch fluorescence ratio
CCCTAGGGGG	1.53
CGCTTCCTGG	1.11
TAGTAGCTAA	2.15
GGGTCAGTTA	1.01
AGTTAAGGTA	0.984
CCTATACACT	1.07
TGCCTATTGG	0.96
CTAGAAAATT	1.02
TGCGGTGCCT	0.962
GATCAATGT	0.965
GAACTTCATA	0.967
GCACATAATG	1.07
GCAAGCACTA	1.23
AAAGAAAACA	0.984
GAGGCCTACG	1.06
ACTGCCTAC	1.46
GCTAGTAATT	0.995
ACAGACAGTG	0.992
AAGATGAATT	0.961
CATGCCATTG	1.02
ACTCAAGGT	1.01
ACTCTCTATT	0.969
TTCGACCTTA	1.08
GAGATCTGAG	1
AGGGAAATTC	0.96
TAATGCCATC	0.969

Sequence	switch fluorescence ratio
CTTTTGGTGG	1
GGTGTGCCCG	0.946
AACAGAGAGC	1.04
CGAGTAACTG	1.13
GCAATTGGCG	0.982
GCGTCTGTCT	1.01
GTTTTCCTGA	0.999
AATCCACGG	1.16
ATGACGTGTT	0.962
GCTCTCGGCA	1.03
GCTTACTATA	1.08
TTCCTTGACA	1.04
TAGGGACGCT	1.01
CGAGTGATAG	1.27
CGCTGAGTGT	1.05
GAGACCGTTG	0.994
TGATAGCCCG	1.07
GCAATTAGAC	1.72
GTTCGCCCGT	1.03
AATTTTATTC	1.02
GATAAACACA	1.03
ACATGTCGA	0.939
ATGTTCAATT	0.936
AGTGAGAGAT	1.03
GTGACCAGTA	1.02
TGCTCATTGA	0.983

Sequence	switch fluorescence ratio
TAGGATGTGC	1.03
CGTAATTATA	0.994
GGAAGGCACG	1.05
AAGCAAGGTA	1.03
GTGAGGTAGT	1
CAGGTCTCGG	1.02
TGTTGTCGTT	1.02
TGTTAGTGAT	1.01
ACCTTGAGGA	0.982
ACAAATCGAC	1.1
CGACAAGATT	1.35
CTTTGATACC	0.98
ACTCATGTGG	1.02
GCTTCCCCAC	1.88
GCCGTACTTT	1.06
GGAGCATTCG	1.67
CTCATAAGCG	0.981
TGATGCTTGC	0.989
CGCGGATCGG	1.01
TAGAGTGAC	1
GTCTGGTTGG	1.03
TTTAATGGAT	1.01
CCGCCTTTGT	1.15
TTACCGTAGG	0.995
AGTGACGACC	1.31
ATTGTTTGGT	0.974

Sequence	switch fluorescence ratio
CGGGACTAGT	0.946
CATTCCGGAC	1.73
AGGTGAATGA	1.08
TATACGTACT	1.8
GTTTGGGGAC	1.01
GACTATTCCC	0.99
GGGGCACCGG	0.994
GGTGTGATTA	0.972
GCCTTTGCGG	1.02
CTCTAAATTG	1.01
CCGTCAGTGG	1.38
GTCTCTTATT	1.01
CCAGGTCTTT	1.09
GGTGCCGCTG	0.994
CTCACCCTTG	1.25
TTACGGGATA	1.06
CAGATACGGG	0.991
TATCTGATAA	1.01
TCCTTAGGCA	1.14
AGGAAATCAT	0.969
CGCGATCGCA	1.05
GGGAGGCAAC	1
TGTATGCCGA	1
GCAATTACGG	2.19
GACAAAAGGA	1.02
TGCATACAAA	0.976

Sequence	switch fluorescence ratio
GTGTGAAGGA	1
ACTTTAGGCT	1.04
AAGATGTCGG	0.961
AACTCATTTC	1.05
ATTTTAAAAG	1
AATCATATCA	1.04
TATAATCAGG	1.02
TGGTGTGTTG	0.862
TAACTATCTC	1.01
CGGGGAACAA	1.18
TAATACAATC	1.03
GCGTGTGGG	0.998
AGCAGGGTTA	0.988
CGGAGTAGGT	1.02
GTTGCAACTG	1.02
CAATGGCAAT	1.25
GCTTCTGATC	1.01
TACTTAGGGT	1
TACTGGATAT	1.02
CGGTAGAACT	0.992
AGTTGGGAT	0.936
AGACATATAT	1.85
GGTTCCTGAA	1.01
GCTCTCCCTT	1.12
AACGGAGCGT	1.09
ATTAACTCCT	1.16

Sequence	switch fluorescence ratio
ATACTCAAAA	1.01
GGGCGCGTCA	0.976
CTAAGTCGGC	1.05
CGTTGGCCTA	0.989
TCTCTCACAC	2.69
CAACGTGAGC	1.02
TTGCTCCCAT	1.16
CTTCAGTGCC	1.03
GATTAAACGT	1.1
TAGTCCTTGT	0.99
GAGTTAGTCC	1.01
GGGGGGACTC	1.05
TCGGTATCGT	0.943
TCGTGAAAAG	1
CGAATCAAGC	1.19
CGCTCACCCT	1.21
CTGTTTAACG	0.956
ACCGTTACGT	1.25
CGACTAGGAT	1.01
